Results taken from PubChem BioAssay AID686970 (National Center for Advancing Translational Sciences (NCATS), 2013).
Several values for one entry are separate records, joined by “and”; a condition that tells them apart may be missing. Identical values can stand only once. The campaign covered roughly 360,000 compounds. About 6,000 (1.7%) were called active. Inconclusive means that the source gave no clear call. Such entries were picked first, then a sample of the others. The call rests on the fitted dose curve; in most records, active means well fitted cell-killing curve with a large enough effect; inconclusive means small, poorly fitted or top-dose-only effect, or effect the other way; inactive means flat fitted curve, though single readings scatter. A potency beside an inconclusive call is a rough fit, not a confirmed value.
Potency means the concentration at half of the fitted maximal effect; tags describe the fitted curve by direction and shape.

Test: qHTS for induction of synthetic lethality in tumor cells producing 2HG: qHTS for the HT-1080-NT fibrosarcoma cell line;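 further: NT is the 2HG producing partner of a matched IDH1 knockdown line; nearly all actives have a fitted effect of over 55% in size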;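 on activity, negative = less viability: 0% = DMSO-treated cells and -100% = media-only wells without cells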
Conditions: HT-1080-NT fibrosarcoma viability, CellTiter-Glo ATP luminescence, 48 h; activity, negative = less viability: at 46.1 µM (top of the series) unless noted
Method in brief: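 Toxicity toward the 2HG-producing NT line was scored as %Activity, normalised to DMSO and no-cell wells, from CellTiter-Glo luminescence after 48 hours' treatment.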
For `C=CCn1c(SCC(=O)Nc2ncc(Cc3ccc(Br)cc3)s2)nnc1-c1ccncc1`, the Potency was inconclusive: 35.5 µM [cytotoxic, single point]. With `CCCC(=O)Nc1cccc(NC(=O)c2ccc3c(c2)OCCO3)c1` the Potency was “inactive”. For `CCN1CCN(Cc2ccc(NC(=O)c3cc(NC(=O)c4cnnc5ccccc45)cc(OC)c3)cc2C(F)(F)F)CC1`, the Potency was “inactive and inconclusive: 29.1 µM [cytotoxic, single point]”. In the case of `CCOC(=O)c1c(NC(=O)CSc2nnc(-c3ccc(C)cc3)o2)sc(C(C)=O)c1C`, the Potency is reported as “inactive”. For `CC1(C(=O)NS(C)(=O)=O)CCN1C(=O)Cc1ccc(-c2ccccc2)cc1` (stereo not given), the Potency was inconclusive: 5.17 µM [rising, partial curve]. In the case of `Cc1c(C#N)c(N=CN(C)C)c(C(=O)c2ccc(Br)cc2)n1-c1ccc(Cl)cc1`, the Potency is reported as inconclusive: 35.5 µM [cytotoxic, single point]. For `CN(c1ccc(F)cc1)S(=O)(=O)c1ccc(Cl)c(C(=O)NCC2(N3CCOCC3)CCCCC2)c1`, the Potency was “inactive”. In the case of `COc1ccc(NC(=O)c2cc(C3CCCCN3S(=O)(=O)c3ccc(C#N)cc3)on2)c(C)c1` (stereo not given), the Potency is reported as “inactive”. For `Cc1cc(Cl)ccc1OCCCC(=O)NCCN1C(=O)S/C(=C\c2cccnc2)C1=O`, the Potency was “inactive”. In the case of `C#CCN1CCc2onc(-c3ccccc3OC)c2C1=O`, the Potency is reported as “inactive”. For `Oc1ccc(CNCC2COc3ccccc3O2)cc1` (stereo not given), the Potency was “inactive”. In the case of `CCOC1=C(C#N)CC2(CC1)c1ccccc1-c1ccccc12`, the Potency is reported as “inactive”. In the case of `CC(C)(C)OC(=O)C[C@@H]1C/C=C\C[C@H](CC(=O)N(CCO)Cc2ccccc2)C(=O)N2CCC[C@@H]2COC1=O`, the Potency is reported as “inactive”. In the case of `COc1ccc(-c2coc3c(C(=O)NCc4ccccc4)cccc23)c(C)c1`, the Potency is reported as inconclusive: 14.6 µM [cytotoxic, single point]. In the case of `Cc1cc(N2CCN(Cc3cn(C)nc3-c3cccc(Cl)c3)CC2)cc(C)n1`, the Potency is reported as active: 14.6 µM. With `COc1ccc(-n2c(-c3ccc(Br)cc3)c[n+]3c2SC(C)C3)cc1` (stereo not given) the Potency was inconclusive: 6.51 µM [cytotoxic, partial curve]. For `Cc1ccc(S(=O)(=O)NNC(=O)C2Cc3c(ccc4ccccc34)O2)cc1` (stereo not given), the Potency was inconclusive: 18.4 µM [cytotoxic, single point]. For `COc1ccc(/C=N/NC(=O)c2nc(Cl)c(Cl)c(N)c2Cl)cc1COc1ccc(F)cc1F`, the Potency was inconclusive: 13 µM [cytotoxic, partial curve]. For `Fc1ccc(CSc2nc3ccccc3[nH]2)c2ccccc12`, the Potency was inconclusive: 29.1 µM [cytotoxic, single point]. For `CC(=O)Nc1nc(C)c(-c2csc(Nc3cccc(C(C)=O)c3)n2)s1`, the Potency was inconclusive: 18.4 µM [cytotoxic, single point]. For `Cc1ccc(NNC(=O)C(O)(c2cccc(C(F)(F)F)c2)c2cccc(C(F)(F)F)c2)cc1`, the Potency was active: 7.31 µM. In the case of `CCCCC1C(=O)NN(c2ccccc2)C1=O` (stereo not given), the Potency is reported as active: 1.84 µM. For `COc1ccc(C(=O)Nc2ccc3nc(N4CCOCC4)sc3c2)cc1OC`, the Potency was “inactive”. For `CC(O)(c1ccc(F)c(F)c1)c1nc(-c2ccccc2)cs1` (stereo not given), the Potency was inconclusive: 23.1 µM [cytotoxic, single point]. For `O[C@@H](c1cc(C(F)(F)F)nc2c(C(F)(F)F)cccc12)[C@H]1CCCCN1`, the Potency was active: 9.2 µM. In the case of `CN(C)C(=O)c1ccc(Nc2ncnc3sc4c(c23)CCCCC4)cc1`, the Potency is reported as inconclusive: 18.4 µM [cytotoxic, single point]. With `N#C/C(=C/c1ccc2c(c1)OCO2)C(=O)NCCc1c[nH]c2ccccc12` the Potency was inconclusive: 35.5 µM [cytotoxic, single point]. In the case of `Nc1ccccc1Nc1cc(-c2ccccc2)[nH]n1`, the Potency is reported as inconclusive: 25.9 µM [cytotoxic, single point]. In the case of `O=C(CSc1cccc2cccnc12)N1CCCC1`, the Potency is reported as active: 7.31 µM. In the case of `CCOC(=O)C(Sc1cc(-c2ccccc2)nc2ncnn12)C(C)=O` (stereo not given), the Potency is reported as inconclusive: 23.1 µM [cytotoxic, partial curve]. For `CN(CC(=O)Nc1ccccc1[N+](=O)[O-])Cc1ccc(Br)cc1`, the activity, negative = less viability was inconclusive: -17.2% [cytotoxic]. For `COc1ccc(-n2c(COc3ccc(Cl)cc3)nnc2SCc2ccc(C#N)cc2)cc1`, the Potency was inconclusive: 17.8 µM [cytotoxic, single point]. In the case of `N=c1c2c(ncn1CCN1CCOCC1)Oc1ccc3ccccc3c1C2c1ccccc1` (stereo not given), the Potency is reported as “inactive”. For `COc1ccc(/C=N/Nc2nncn2N)cc1Br`, the Potency was active: 16.4 µM. With `COCCCNC(=O)COc1cc2c(c3oc(=O)c(C)c(C)c13)CCC(C)(C)O2` the Potency was “inactive”. For `COC(=O)c1ccc(CNC(=O)c2ccccc2C(=O)NCC2(CBr)OCCO2)cc1`, the Potency was “inactive”. With `CN1CCN(c2oc(/C=C/c3ccccc3)nc2C#N)CC1` the Potency was “inactive”. With `CCOC(=O)N1CCC(NC(=O)c2ccc3c(c2)N=C(C)c2c(C)ccc(C)c2S3)CC1` the Potency was active: 2.06 µM. For `Cc1ccc(COc2ccc(Br)cc2/C=N/O)cc1`, the Potency was inconclusive: 32.6 µM [cytotoxic, single point]. For `CSc1nnc(CCNS(=O)(=O)c2ccccc2Br)n1C`, the Potency was “inactive”. For `CN(Cc1cc(Cl)cc(Cl)c1)CC(C(=O)c1ccccc1)c1ccccc1` (stereo not given), the Potency was “inactive”. With `O=C(Nc1ccc(N2CCOCC2)cc1)c1cccc(S(=O)(=O)N2CCCCC2)c1` the Potency was inconclusive: 20.6 µM [cytotoxic, single point]. For `O=[N+]([O-])c1cc(O)c2ncccc2c1`, the Potency was active: 1.84 µM. For `CC(C)c1ccc(NC(=O)CN2C(=O)NC3(CCCCCCC3)C2=O)cc1`, the Potency was “inactive”. In the case of `CC(=O)Nc1ccc(/C=N/Nc2nc3ccccc3[nH]2)cc1`, the Potency is reported as inconclusive: 20.6 µM [cytotoxic, single point]. In the case of `O=C(OCCN1CCN(C2=NS(=O)(=O)c3ccccc32)CC1)c1cccc(Br)c1`, the Potency is reported as “inactive”. For `O=C(Cn1cc(F)c(=O)[nH]c1=O)c1ccco1`, the Potency was “inactive”. With `OC1CC2CCC(C1)N2CCCN1c2ccccc2Sc2ccc(Cl)cc21` (stereo not given) the Potency was inconclusive: 18.4 µM [cytotoxic, single point]. For `COc1ccccc1C(=O)Nc1cccc(NC(=O)c2ccccc2OC)n1`, the Potency was inconclusive: 32.6 µM [rising, single point]. For `COc1cc(/C=C2\Oc3ccc(C#Cc4ccc(O)cc4)cc3C2=O)cc(OC)c1`, the activity, negative = less viability was inconclusive: -27.2% [cytotoxic]. For `COc1ccc(/C=C/c2nnc(NC(=O)COc3cccc(C)c3)s2)cc1`, the Potency was inconclusive: 29.1 µM [cytotoxic, single point]. With `COc1ccccc1-c1oc2ccccc2c1C#CC1(O)CCCCC1` the Potency was inconclusive: 25.9 µM [cytotoxic, single point]. With `COc1ccc(CNC(=O)CN2C(=O)C(c3ccccc3)Oc3cccnc32)cc1` (stereo not given) the Potency was “inactive”. In the case of `C=CCCC(=O)Nc1nc(C)c(-c2csc(Nc3ccc(Cl)cc3Cl)n2)s1`, the Potency is reported as active: 16.4 µM. In the case of `NNC(=O)c1ccc2nc(-c3ccc(Br)cc3)cn2c1`, the Potency is reported as active: 18.4 µM. For `CCC(C)[C@H](NC(=O)N1CCn2c1nc1ccccc12)C(=O)NCCc1ccccc1` (stereo not given in full), the Potency was “inactive”. With `CC(=O)Nc1cc(-c2ccc(N(C)C)cc2)cn2c(-c3ccc(F)c(Cl)c3)cnc12` the Potency was inconclusive: 18.4 µM [cytotoxic, single point]. With `O=C(CN1CCCCC1)Nc1nc(-c2ccc(Cl)cc2)cs1` the Potency was “inactive”. With `O=C(Nc1ccc([N+](=O)[O-])cc1)Nc1ccon1` the Potency was active: 1.16 µM. With `Cc1cc(C)cc(NC(=S)NC2CC3CCC(C2)N3Cc2ccco2)c1` (stereo not given) the Potency was “inactive”. In the case of `COc1ccc(NC(=O)c2cc(-c3ccc(C)cc3O)n[nH]2)c(OC)c1`, the Potency is reported as inconclusive: 0.731 µM [rising, full curve, poor fit]. For `Nc1ncnc(Nc2c(F)cccc2F)n1`, the Potency was inconclusive: 25.9 µM [rising, single point]. With `COc1ccc(OC)c(CN2CCCC(C(=O)c3ccccc3SC)C2)c1` (stereo not given) the Potency was inconclusive: 8.2 µM [cytotoxic, partial curve]. For `O=C(Nc1cc([N+](=O)[O-])ccc1Cl)C(Sc1ccccc1)c1ccccc1` (stereo not given), the Potency was “inactive”. For `CCCCN1CCc2c([nH]c3ccc(C)cc23)C1=O`, the Potency was inconclusive: 2.91 µM [rising, partial curve]. With `COc1ccc(NC(=O)/C(C#N)=C/C=C/c2ccco2)cc1` the Potency was inconclusive: 23.1 µM [cytotoxic, single point]. In the case of `CC1CCN(c2ccccc2NC(=S)NC(=O)c2cccs2)CC1`, the Potency is reported as inconclusive: 29.1 µM [cytotoxic, single point]. With `CN(C)c1c2ccccc2nc2c(F)c(F)c(F)c(F)c12` the Potency was “inactive”. In the case of `O=C(Nc1ccc(N2CCCCC2)cc1)c1ccccc1`, the Potency is reported as inconclusive: 22.4 µM [cytotoxic, single point]. For `Cc1ccc(OCCn2cc(C(=S)N3CCCC3)c3ccccc32)cc1C`, the Potency was inconclusive: 20.6 µM [cytotoxic, single point]. In the case of `CC(=O)Nc1cc(-c2ccc(C(=O)N3CCOCC3)cc2)cn2c(-c3ccc(F)c(Cl)c3)cnc12`, the Potency is reported as inconclusive: 29.1 µM [cytotoxic, single point]. In the case of `O=C(O)c1ccc(NC(=O)c2cn(-c3ccccc3)nc2-c2cccc(Cl)c2)cc1`, the Potency is reported as inconclusive: 20.6 µM [cytotoxic, single point]. For `Cc1ccc(-c2ccc(CN3C(C)C(=O)N(Cc4cn(Cc5ccco5)nn4)CCS3(=O)=O)cc2)cc1` (stereo not given), the Potency was inconclusive: 20.6 µM [cytotoxic, single point]. For `O=C(O)C(Cc1ccnc2ccccc12)=NO`, the activity, negative = less viability was inconclusive: 37.8%. In the case of `Cc1cc(C)c(C#N)c(SCCS(=O)(=O)Cc2ccc(Cl)cc2)n1`, the Potency is reported as inconclusive: 16.4 µM [cytotoxic, single point].
